# Out of some 210,000 compounds screened, about 5,900 (2.8%) were called active. The shares of active, inactive and inconclusive entries below differ from those in the screen. Calls come from the whole dose curve; as a rule, active = well fitted activation curve with a large enough effect; inconclusive = small, poorly fitted or top-dose-only effect; inactive = no such curve, though single readings can be large or run the other way. A potency beside an inconclusive call is a rough fit, not a confirmed value.
# Assay: qHTS Assay for Enhancers of SMN2 Splice Variant Expression; note: nearly all actives have a fitted effect of over 55% in size; for activity change, positive = activation: % of control where 0% means no effect
# Details: HEK293 SMN2-luciferase splicing reporter, luminescence, 30-36 h; activity change, positive = activation: at 46.1 µM (top of the series)
# Method in brief: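 HEK293 cells carry an SMN2 minigene-luciferase reporter in which exon 7 inclusion puts luciferase in frame. Cells were seeded at 2000 cells/well, attached for 10-12 hours, then exposed to compounds for 30-36 hours at 37C before ONE-Glo luminescence.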
# Potency is the fitted concentration of half-maximal effect; tags give direction and shape of the fitted curve.
SMILES,Potency,"activity change, positive = activation"
N#Cc1nc(COc2ccccc2F)oc1NCCc1ccccc1,"inconclusive: 11.2 µM [activator, partial curve]",–
CCOc1ccc(NC(=O)Nc2cc(C)on2)cc1,"inconclusive: 20 µM [activator, partial curve, poor fit]",–
O=C(c1ccc(Cn2cc(Br)cn2)cc1)N1CCN(c2ccccc2)CC1,"inconclusive: 31.6 µM [activator, single point]",–
CCc1ccc2c(c1)NC(c1cccs1)=NC(c1ccc(F)cc1)=N2,"inconclusive: 15.8 µM [activator, single point]",–
CCOc1cc(/C=N/N=C2/NC(=O)C(CC(=O)O)S2)ccc1OCc1ccc(Cl)cc1Cl (stereo not given),"inconclusive: 22.4 µM [activator, single point]",–
CCc1c(C)nc2cc(-c3cc(OC)cc(OC)c3)nn2c1N1CCCC1,–,inactive: -5.94%
NC(=O)N/N=C/c1cn(-c2ccccc2)nc1-c1ccccc1,"inconclusive: 12.6 µM [activator, partial curve, poor fit]",–
Cc1c(-c2cccc(Cl)c2)nc2ccccc2c1C(=O)OCC(=O)Nc1ccc2c(c1)OCO2,–,inactive: -12.3%
CCN1CCN(C(c2cc(OC)c(OC)c(OC)c2)c2nnnn2C(C)C)CC1 (stereo not given),"inconclusive: 0.0112 µM [activator, full curve, poor fit]",–
O=C(COc1ccccc1)Nc1nnc(-c2ccc3c(c2)CCCC3)o1,"inconclusive: 15.8 µM [activator, partial curve, poor fit]",–
Cc1c(Cl)cccc1-c1ccc(C(=O)Nc2ccc(F)cc2)o1,–,inactive: 18.4%
Cc1ccc2[nH]c3c(=S)nc[nH]c3c2c1,"inconclusive: 3.98 µM [activator, single point]",–
CCOc1ccc(N2C(=O)CC(Sc3ncccn3)C2=O)cc1 (stereo not given),"inconclusive: 0.355 µM [activator, full curve]",–
N#CCC(=O)Nc1nc(-c2ccc3c(c2)OCCO3)cs1,active: 12.6 µM,–
Cc1cc(C)c(C#N)c(SCCS(=O)(=O)Cc2ccccc2)n1,"inconclusive: 35.5 µM [activator, partial curve, poor fit]",–
Cc1cc(Br)ccc1OCc1nc(-c2cccnc2)no1,"inconclusive: 14.1 µM [activator, single point]",–
Cc1ccc(-c2cc3c(n2-c2ccc(C(=O)O)cc2)CCCC3=O)cc1,"inconclusive: 22.4 µM [activator, partial curve, poor fit]",–
Cc1ccccc1C(=O)NC(=S)Nc1ccccc1N1CCCC1,"inconclusive: 4.47 µM [activator, single point]",–
COc1cccc(OC)c1C(=O)NC(=S)Nc1ccc2c(c1)C(=O)N(C)C2=O,"inconclusive: 3.55 µM [activator, single point]",–
CCn1c(C)nc2c(C)[n+](CC(=O)c3ccc(Br)cc3)ccc21,–,inactive: 7.12%
Cc1ccc(S(=O)(=O)N2CCCOC2CNC(=O)C(=O)NCCCn2ccnc2)cc1 (stereo not given),"inconclusive: 0.0282 µM [activator, full curve, poor fit]",–
Cc1ccc(C)c(S(=O)(=O)NCc2ccc(C(=O)N3CCCCC3C)cc2)c1 (stereo not given),–,inactive: -8.81%
CNc1nc(N2CCc3ccccc32)ncc1F,"inconclusive: 15.8 µM [activator, single point]",–
COc1ccccc1C(=O)N1CCN(c2ccccn2)CC1,–,inactive: -4.91%

SMILES,Potency,"activity change, positive = activation"
O=C(COc1ccc(Cl)cc1)NCC(=O)N/N=C/c1cccs1,"inconclusive: 35.5 µM [activator, single point]",–
O=C(NCCN1CCOCC1)c1ccc2ccccc2n1,"inconclusive: 4.47 µM [activator, full curve]",–
COc1ccccc1N(CC(=O)Nc1ccccc1C)S(C)(=O)=O,"inconclusive: 35.5 µM [activator, single point]",–
COC(=O)Nc1ncc(CN2CCCCC2)s1,"inconclusive: 31.6 µM [activator, single point]",–
CCOC(=O)C1=C2c3ccc4ccccc4c3CC(C)(C)N2C(=O)C1=O,–,inactive: -11.6%
Cc1cc(C)nc(N/N=C/c2sccc2C)n1,"inconclusive: 8.91 µM [activator, partial curve]",–
CN1CCN(CC(=O)Nc2cccc3ccccc23)CC1,–,inactive: -4.42% [at 9.22 µM]
CCc1cccc(NC(=O)C2CCN(C(=O)c3cnn(-c4ccccc4)c3-n3cccc3)CC2)c1,–,inactive: -38.4%
CCCCNC(=O)c1onc(CSc2ccc(F)c(F)c2)c1C(=O)O,"inconclusive: 22.4 µM [activator, single point]",–
CCOC(=O)c1[nH]c(C)c(C(=O)Nc2ccccc2F)c1C,active: 5.01 µM,–
Cc1ccc(C)n1Cc1ccc(C(=O)O)cc1,"inconclusive: 35.5 µM [activator, partial curve, poor fit]",–
CC1CCc2nc(NC(=O)CN3CCOCC3)sc2C1 (stereo not given),"inconclusive: 14.1 µM [activator, partial curve, poor fit]",–
CC(C)c1ccc(/C=C/c2ccc(=O)n(C)n2)cc1,active: 11.2 µM,–
CC(C)(C)N1C(=O)c2ccc(C(=O)Nc3ccc(-c4nc5ccccc5[nH]4)cc3)cc2C1=O,"inconclusive: 0.631 µM [activator, full curve, poor fit]",–
COc1cc(/C=N/NC(=O)C(C)Nc2n[nH]c(=O)[nH]c2=O)ccc1O (stereo not given),–,inactive: 25.1%
Cc1nnc(SCc2nnc(-c3cccs3)o2)n1C,"inconclusive: 35.5 µM [activator, single point]",–
COc1ccc(Cl)cc1NC(=O)CCS(=O)(=O)c1nc(-c2cccs2)cc(C(F)(F)F)n1,–,inactive: 6.65%
Cc1cc(-c2nc3ncccc3o2)ccc1NC(=O)CC(C)C,"inconclusive: 10 µM [activator, partial curve]",–
COc1cc(/C=N/NC(=O)c2cc(C34CC5CC(CC(C5)C3)C4)[nH]n2)ccc1O,–,inactive: 19.9%
O=C(Nc1cccc(-c2nc3ccccc3o2)c1)c1ccc(-c2ccc(Br)cc2)o1,–,inactive: -3.19%
CC1CCN(Cc2ccc(-c3nnn(CC(=O)Nc4ccccc4Cl)n3)cc2)CC1,–,inactive: -26.6%
CC(=O)c1ccc(N/N=C(/C(N)=O)C2=NC(C)(C)Cc3ccccc32)cc1,"inconclusive: 6.31 µM [activator, single point]",–
CCCc1nc2ccccc2n2c(-c3ccc(C)cc3)c3c(=O)n(C)c(=O)n(C)c3c12,–,inactive: -0.816%
COC(=O)CCc1sc(Nc2ccccc2)nc1-c1ccc(OC)cc1,–,inconclusive: 32.1% [activator]

SMILES,Potency,"activity change, positive = activation"
Cc1cc(C)c(NC(=O)Cn2c(=O)n(Cc3ccco3)c(=O)c3ccc(C(=O)NC4CCCC4)cc32)c(C)c1,"inconclusive: 0.251 µM [activator, full curve]",–
C#CCOCCCC(=O)O,–,inactive: -19.6% [at 9.22 µM]
CCOc1ccc(Oc2nc(NC)nc(N3CCOCC3)n2)nn1,"inconclusive: 17.8 µM [activator, partial curve, poor fit]",–
CN1CCN(c2ccc(C(=O)c3ccc(F)cc3)cc2)CC1,"inconclusive: 11.2 µM [activator, partial curve, poor fit]",–
COc1ccc(NS(=O)(=O)c2cc(OC)ccc2NC(=O)c2cc(C)oc2C)cc1,"inconclusive: 6.31 µM [activator, full curve, poor fit]",–
CCCCOc1ccc(-c2ncc(C(=O)O)c(C)n2)cc1,active: 14.1 µM,–
CCCCn1c(=O)[nH]c(=O)c2c1nc(-c1ccsc1)n2Cc1ccccc1,"inconclusive: 0.0071 µM [activator, full curve]",–
O=C/C(=C\Nc1ccccn1)c1nc2cc(Cl)ccc2o1,"inconclusive: 0.708 µM [activator, single point]",–
COC(=O)c1ccccc1NC(=O)C1CCCO1 (stereo not given),"inconclusive: 3.16 µM [activator, single point]",–
CN(C)CCCN(C(=O)c1ccc(Br)s1)c1nc2cc3c(cc2s1)OCO3,"inconclusive: 12.6 µM [activator, partial curve]",–
COc1cc(/C=C(\C#N)C(=O)Nc2ccc(C)cc2)ccc1OCc1cc(=O)n2nc(C)sc2n1,–,inactive: -0.215%
CCOC(=O)c1cc(NC(=O)c2ccc(C)cc2)c(=O)n2c1oc1ccc(Cl)cc12,–,inactive: -3.23%
NC(CC(=O)O)c1cccc(OCc2ccccc2)c1 (stereo not given),"inconclusive: 0.02 µM [activator, full curve, poor fit]",–
C/C(N)=C(/C#N)C(=O)CSc1nc2ccccc2[nH]1,"inconclusive: 20 µM [activator, single point]",–
Cn1c(=O)nc2n(Cc3ccccc3)c3ccccc3cc-2c1=O,"inconclusive: 1 µM [activator, full curve, poor fit]",–
CCN(CC)S(=O)(=O)c1ccc(OC)c(NC(=O)c2ccc3c(c2)OCO3)c1,–,inactive: 14.8%
COc1cccc(-n2nnc3c(=O)n(Cc4ccccc4Cl)cnc32)c1,"inconclusive: 1.58 µM [activator, full curve, poor fit]",–
Cc1cccc(-n2c(C)cc(C(=O)NC3CCCCC3)c2C)c1,"inconclusive: 0.0178 µM [activator, full curve, poor fit]",–
Cn1c(C(=O)Nc2ccc3c(c2)OCCO3)cc2sccc21,active: 7.08 µM,–
CCOC(=O)CSc1nc2ccccc2c(=O)n1C1CCCC1,"inconclusive: 0.1 µM [activator, full curve, poor fit]",–
CCc1ccc(C(=O)c2cncc(Br)c2)cc1,"inconclusive: 35.5 µM [activator, single point]",–
Oc1ccc(N=Cc2ccc(O)c(O)c2)cc1,"inconclusive: 35.5 µM [activator, single point]",–

# Reference: PubChem BioAssay AID1458 (National Center for Advancing Translational Sciences (NCATS), 2008)
